Results from PubChem BioAssay AID686970 (National Center for Advancing Translational Sciences (NCATS), 2013).
About 6,000 (1.7%) of roughly 360,000 compounds were called active. The inconclusive results got no clear call from the source; some entries with a clear call stand among them for comparison. Calls follow the shape of the dose curve; as a rule, active = well fitted cell-killing curve with a large enough effect; inconclusive = small, poorly fitted or top-dose-only effect, or effect the other way; inactive = flat fitted curve, though single readings scatter. Potencies of inconclusive entries are left out as doubtful fits.

Test: qHTS for induction of synthetic lethality in tumor cells producing 2HG: qHTS for the HT-1080-NT fibrosarcoma cell line;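 also: NT is the 2HG producing partner of a matched IDH1 knockdown line; nearly all actives have a fitted effect of over 55% in size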;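 as to activity, negative = less viability: 0% = DMSO-treated cells and -100% = media-only wells without cells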
Conditions: HT-1080-NT fibrosarcoma viability, CellTiter-Glo ATP luminescence, 48 h; activity, negative = less viability: at 46.1 µM (top of the series) unless noted
Outline: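 Compounds were tested in concentration-response format on HT-1080-NT cells for 48 hours at 37 degrees C. Cell viability came from CellTiter-Glo luminescence; curves were classified by r2, response magnitude and activity.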
Potency is read from the fitted curve at half-maximal effect; tags tell the direction and shape of the fitted curve.

| SMILES | Potency | activity, negative = less viability |
| --- | --- | --- |
| Cc1ccc(S(=O)(=O)N2CCC(=O)CC2)cc1 | inactive | – |
| COc1ccccc1NS(=O)(=O)CC12CCC(CC1=O)C2(C)C (configuration not stated) | inactive | – |
| CCc1nnc(NS(=O)(=O)c2ccc(NC(=O)OC)cc2)s1 | – | inconclusive: -20.8% [cytotoxic] |
| COc1ccc(C(=O)/C=C/c2ccc(OC(=O)c3cc(OC)c(OC)c(OC)c3)cc2)cc1 | inconclusive [cytotoxic, partial curve] | – |
| CCn1c(SCC(=O)N2CCc3ccccc32)nnc1-c1c[nH]c2ccccc12 | inactive | – |
| C=CCc1cc(/C=C/c2nc(O)c([N+](=O)[O-])c(=O)[nH]2)cc(OC)c1O | inactive | – |
| CCOC(=O)C(NC(=O)c1ccccc1Cl)(Nc1ccc(C(F)(F)F)cc1)C(F)(F)F (configuration not stated) | inactive | – |
| CC1CCCN(CC(O)COc2ccc(-c3ccccc3)cc2)C1 (configuration not stated) | active: 18.4 µM | – |
| O=C(NCC(=O)N1CCOCC1)OCc1ccccc1 | inactive | – |
| CC(C)C[C@@H]1CN(CCCC[C@H]2CNC(=O)C(=O)N2CCC2CCCCC2)C(=O)C(=O)N1CC1CCCCC1 | inactive | – |
| C=CCn1cnc2c(nnn2Cc2ccc(F)cc2)c1=O | inconclusive [rising, partial curve, poor fit] | – |
| Cc1ccc(NC(=O)CN2C(=O)S/C(=C\c3ccc(-c4cccc(C(=O)O)c4C)o3)C2=O)cc1C | inconclusive [cytotoxic, partial curve] | – |
| OCC[C@H]1C[C@H](O)[C@@H](O)[C@]2(OCc3ccccc32)O1 | inactive | – |
| Cc1ccc(C(C[N+](=O)[O-])Sc2ccc(N)cc2)cc1 (configuration not stated) | inconclusive [cytotoxic, single point] | – |
| COC(=O)[C@@]1(Cc2ccc(F)cc2)[C@H]2c3cc(C(=O)N(C)C)n(CC4CC4)c3C[C@H]2CN1C(=O)c1ccccc1 | inconclusive [cytotoxic, single point] | – |
| CC1CCN(CC(=O)Nc2cccc(C(=O)Nc3cccc(C(F)(F)F)c3)c2)CC1 | active: 16.4 µM | – |
| N#CCCN(C(=O)Cn1nc(C(=O)O)c2ccccc2c1=O)c1ccccc1 | inactive | – |
| O=[N+]([O-])c1ccc(-c2csc(N3CCc4ccccc4C3)n2)cc1 | inactive | – |
| CCCCCc1c(-c2ccc(F)cc2F)ncn1CCc1ccccc1OC | inconclusive [cytotoxic, single point] | – |
| O=C(CNc1ccc(Br)cc1)Nc1ccc(S(=O)(=O)N2CCCCC2)cc1 | inactive | – |
| COc1ccc(C=C2C(=O)c3ccccc3C2=O)cc1O | inactive | – |
| CCC1CCCCN1CCCNC(=O)Cn1ncc2c([nH]c3ccc(C)cc32)c1=O (configuration not stated) | inactive | – |
| Cc1cc(N2CCCC2)ccc1NC(=O)COc1cccc(C(F)(F)F)c1 | inconclusive [cytotoxic, partial curve] | – |
| COc1ccccc1[C@H]1C(c2cccc(C)c2)=NN(c2ccccc2)[C@@H]1CO | inconclusive [cytotoxic, single point] | – |

| SMILES | Potency | activity, negative = less viability |
| --- | --- | --- |
| COc1ccc(/C=C/C(=O)c2ccc(O)cc2)cc1 | inactive | – |
| C/C(=N\NC(=O)c1cc(Br)ccc1O)c1ccccn1 | inconclusive [cytotoxic, partial curve] | – |
| CCCn1nnnc1NC(=O)CSc1ccc(Cl)cc1 | inconclusive [cytotoxic, single point] | – |
| CC1(C(=O)NCc2cccc(C(F)(F)F)c2)CCN1Cc1cc2ccccc2o1 (configuration not stated) | inconclusive [cytotoxic, single point] | – |
| COc1cc(CNCCc2ccccc2F)ccc1OCc1ccc(Cl)nc1 | inconclusive [cytotoxic, single point] | – |
| Cc1ccc(OCC(O)Cn2c(=N)n(CCN3CCCCC3)c3ccccc32)cc1 (configuration not stated) | active: 16.4 µM | – |
| CC(C)(C(=O)N1CCC1(C)C(=O)NS(=O)(=O)c1cccc(Cl)c1)c1ccccc1 (configuration not stated) | inactive | – |
| COc1ccc(C(=O)NCCCNC(=O)c2ccccn2)cc1 | inconclusive [rising, full curve, poor fit] | – |
| C=CCN(CC=C)S(=O)(=O)c1ccc2nc(NC(=O)C3CCCO3)sc2c1 (configuration not stated) | inconclusive [cytotoxic, single point] | – |
| Cc1cc(=O)n(CC(=O)Nc2cc(Cl)ccc2C)c(C(C)C)n1 | inactive | – |
| O=C(N/N=C/c1ccc(O)cc1)c1ccc(COc2cc(Cl)ccc2Cl)o1 | inconclusive [cytotoxic, partial curve] | – |
| CCOC(=O)c1cnc2ccc(OCC)cc2c1N1CCN(c2ccccc2OC)CC1 | inconclusive [cytotoxic, single point] | – |
| N=c1n(CCN2CCCCC2)c2ccccc2n1CC(O)c1cccc(Br)c1 (configuration not stated) | active: 23.1 µM | – |
| Cc1cccc(OCc2n[nH]c(=S)n2C2CCCCC2)c1 | inconclusive [cytotoxic, single point] | – |
| FC(F)(F)c1ccccc1-c1ccc2nncn2c1 | inconclusive [rising, partial curve] | – |
| Cc1c(Br)c([N+](=O)[O-])nn1CC(=O)Nc1ccc2nc3n(c(=O)c2c1)CCCC3 | inconclusive [rising, partial curve] | – |
| O=C(CSC1=Nc2ccccc2C2CC=NN12)Nc1ccc2c(c1)OCO2 (configuration not stated) | inconclusive [cytotoxic, single point] | – |
| CC(C)(C)OC(=O)N1CCC(c2c(C(=O)NCC3CCN(C4CCCC4)C3)cnn2-c2cccc(Cl)c2)CC1 (configuration not stated) | inconclusive [cytotoxic, single point] | – |
| Cn1cnc2nc(Cl)nc(Cl)c21 | inconclusive [cytotoxic, full curve] | – |
| COc1ccc(-c2cc(C(=O)N3CCN(c4ccccn4)CC3)c3ccccc3n2)cc1 | inconclusive [cytotoxic, single point] | – |
| COCCNC(=S)N/N=C(\C)c1ccc(O)cc1 | inactive | – |
| O=C(COC(=O)c1c2c(nc3ccccc13)CCCC2)Nc1ccc2c(c1)OCO2 | inconclusive [cytotoxic, single point] | – |
| COc1ccccc1NC(=O)c1ccc([N+](=O)[O-])o1 | inconclusive [cytotoxic, partial curve] | – |
| Cc1ccc(CNC(=O)c2nnn(CC(=O)Nc3cccc(C)c3C)c2N)cc1 | inconclusive [cytotoxic, full curve, poor fit] | – |

| SMILES | Potency | activity, negative = less viability |
| --- | --- | --- |
| COc1ccc(Cl)cc1NC(=O)CN(C)C(=O)c1ccc2c(c1)CC(c1ccccc1)OC2=O (configuration not stated) | inactive | – |
| CC(C)C[C@H](NC(=O)N1CCn2c1nc1ccccc12)C(=O)NCc1ccc2c(c1)OCO2 | inactive | – |
| COc1ccccc1NC(=O)N1CCC(c2nc3cc(C)c(C)cc3[nH]2)CC1 | active: 5.8 µM | – |
| Cc1nn(-c2ccccc2)nc1CNC(=O)c1ncoc1-c1ccccc1 | inconclusive [cytotoxic, single point] | – |
| COc1ccc(C2NC(=O)c3ccccc3O2)cc1 (configuration not stated) | inactive | – |
| O=C(COC(=O)Cn1cnc2ccccc2c1=O)Nc1ccc(Cl)cc1 | inactive | – |
| CCc1c(C)nc2cc(-c3ccc(OC)c(OC)c3)nn2c1N1CCCC1 | inconclusive [cytotoxic, single point] | – |
| O=C(CNc1cccc(S(=O)(=O)N2CCCC2)c1)Nc1ccc(F)c(F)c1 | inactive | – |
| O=C(Nc1cccc(C(F)(F)F)c1)Nc1ccc(N2CCCC2)c(S(=O)(=O)Nc2ccccc2Cl)c1 | inconclusive [cytotoxic, partial curve] | – |
| O=C1NC(c2ccccc2Cl)Nc2ccccc21 (configuration not stated) | inconclusive [cytotoxic, partial curve] | – |
| Cn1nc(C(F)(F)F)c(C(=O)Nc2ccc(F)cc2F)c1Sc1ccc(C(F)(F)F)cc1 | inconclusive [cytotoxic, partial curve] | – |
| COc1ccc(C)cc1-n1c(SCC(=O)Nc2cc(C)on2)nc2sc(C)c(C)c2c1=O | inactive | – |
| O=C1C(N2CCOCC2)=Cc2cccc3cccc1c23 | inactive | – |
| CC(COc1ccc(/C=C/c2ccccc2)cc1)[N+](C)(C)C (configuration not stated) | inconclusive [cytotoxic, single point] | – |
| Cc1nn(CCCC(=O)NCCc2ccccc2)c(C)c1[N+](=O)[O-] | inconclusive [rising, single point] | – |
| Cc1ccc(NC(=O)C2CC(=O)N(c3ccc4c5c(cccc35)CC4)C2)cc1 (configuration not stated) | inconclusive [cytotoxic, single point] | – |
| CCn1c(-c2ccccc2)c(C(=O)CCl)c2ccccc21 | inconclusive [cytotoxic, single point] | – |
| c1ccc(C[n+]2csc3ccccc32)cc1 | inconclusive [cytotoxic, single point] | – |
| O=C1CCCC2=C1C(c1cccc(O)c1)C1=C(N2)c2ccccc2C1=O (configuration not stated) | inactive | – |
| COc1ccc(-c2ccc(C(=O)Nc3cccc(NS(C)(=O)=O)c3)c3occc23)c(C)c1 | inconclusive [cytotoxic, single point] | – |
| COc1c[nH]n(C2CCCCC2)c(=O)c1=O | inconclusive [cytotoxic, single point] | – |
| O=C(/C=C/c1cc2ccccc2o1)c1ccccc1O | inconclusive [cytotoxic, partial curve, poor fit] | – |
| O=C1N[C@@H](Cc2c[nH]c3ccccc23)COC(=O)[C@H](Cc2ccc(F)cc2)C/C=C\C[C@H]1CC(=O)N(CCO)Cc1ccccc1 | inconclusive [cytotoxic, single point] | – |
| Cc1ccccc1-c1nc(CS(=O)(=O)CC(=O)N2CCCCC2)c(C)o1 | inconclusive [cytotoxic, partial curve] | – |
